Results on 63 sequences are retold here after the supplement of paper PMC4166925.

± gives the standard deviation of the averaged measurements. Over roughly 33,000 sequences, “E-score (dimensionless, -0.5 to 0.5)” has its median near -0.049; the highest 2% begin near 0.37. This is one part of the list.

The subject of the assay is T1, PmTbr T-box DNA-binding domain (GST fusion).
T1 sequence: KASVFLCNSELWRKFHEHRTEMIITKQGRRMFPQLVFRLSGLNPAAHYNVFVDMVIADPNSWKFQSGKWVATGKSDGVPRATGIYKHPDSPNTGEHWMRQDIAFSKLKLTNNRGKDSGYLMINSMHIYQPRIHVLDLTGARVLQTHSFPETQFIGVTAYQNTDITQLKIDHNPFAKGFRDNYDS
Briefly: PBM E-score of 8-mer (E-score (dimensionless, -0.5 to 0.5)); Tbr is Tbrain of the sea star Patiria miniata (Pm) or the sea urchin Strongylocentrotus purpuratus (Sp); higher = stronger binding preference; most listed sequences are background and not binding sites. The note with it: the construct has about 5 more residues each side. The procedure, abridged:
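GST-fused Tbr T-box DNA-binding domains (the whole T-box plus about five flanking residues) were expressed in BL21 E. coli at 20 °C and purified by glutathione affinity chromatography. Universal Agilent oligonucleotide arrays were made double-stranded by primer extension, incubated with 200 nM protein in PBS (pH 7.5), then scanned and quantified. Every ungapped 8-mer was scored from probe intensities. The Universal PBM Analysis Suite gave each word an enrichment E-score, averaged over duplicate arrays.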
For GCGGTCGA, the “PBM E-score of 8-mer” value is 0.082 ± 0.038.
The result for TGGGGCAA reads -0.138 ± 0.041; that for AGGAATAC, -0.278 ± 0.082; that for CATAAAGC, -0.206 ± 0.057.
The result for ATACACAG reads -0.0706 ± 0.021; that for GGGTTATA, -0.0445 ± 0.021.
For the sequence ATATTTAG, the “PBM E-score of 8-mer” value was -0.0478 ± 0.012.
Turning to GATCCGGA, the “PBM E-score of 8-mer” value was -0.0726 ± 0.05.
For the sequence AATTTCGC, the “PBM E-score of 8-mer” value is 0.3262 ± 0.0031.
Take ATACGGCG: the “PBM E-score of 8-mer” value was -0.0155 ± 0.015.
Consider ATAGCATC, for which the “PBM E-score of 8-mer” value was 0.0443 ± 0.049.
The figure for ATAAACAA is -0.0987 ± 0.12; for AGTTTGTG it is 0.0706 ± 0.0084.
As for CTCATGAA, the “PBM E-score of 8-mer” value is -0.0984 ± 0.015.
Regarding CAGGGGCA, the “PBM E-score of 8-mer” value is -0.36 ± 0.043.
For the sequence CTCCTTCA, the “PBM E-score of 8-mer” value is -0.164 ± 0.033.
AGGGATAT: the “PBM E-score of 8-mer” value is -0.238 ± 0.052.
For GTCAAACA, the “PBM E-score of 8-mer” value is -0.0272 ± 0.074.
Consider CCCATGGC, for which the “PBM E-score of 8-mer” value was -0.121 ± 0.0038.
As to AATTTGCA, the “PBM E-score of 8-mer” value came out at 0.11 ± 0.08.
For GCGTAACA, the “PBM E-score of 8-mer” value is 0.116 ± 0.016.
In the case of CCGTATCC, the “PBM E-score of 8-mer” value was -0.134 ± 0.028.
The result for CATGTGCC reads 0.126 ± 0.062; that for ATCCACGG, -0.244 ± 0.0051.
As for GTCCCGTA, the “PBM E-score of 8-mer” value was -0.34 ± 0.065.
As to CACACTAC, the “PBM E-score of 8-mer” value is 0.323 ± 0.014.
As for AATTTAAC, the “PBM E-score of 8-mer” value was found to be 0.0896 ± 0.053.
The result for GTAGCATA reads -0.016 ± 0.0069.
Regarding TTAAAAAA, the “PBM E-score of 8-mer” value is -0.117 ± 0.0036.
As for GTAAGGAA, the “PBM E-score of 8-mer” value was -0.0321 ± 0.098.
The result for CGAGCGAG reads 0.00852 ± 0.057; that for CGTAATAC, -0.208 ± 0.025.
As to CCGCTGGA, the “PBM E-score of 8-mer” value was -0.12 ± 0.038.
As to ACCCCGTG, the “PBM E-score of 8-mer” value was 0.157 ± 0.055.
In the case of ATTATTCG, the “PBM E-score of 8-mer” value was -0.0471 ± 0.044.
As for CTAATAAG, the “PBM E-score of 8-mer” value is -0.0081 ± 0.031.
The figure for ACCTGCAT is 0.0692 ± 0.0092; for ATCCTCAT it is -0.181 ± 0.048; for AGGCAGTC it is -0.183 ± 0.031.
For the sequence GGTCCGCA, the “PBM E-score of 8-mer” value is -0.0241 ± 0.056.
The result for CCTTCTCC reads -0.0679 ± 0.015; that for CCAACGTC, -0.107 ± 0.0055.
The figure for CGACACGA is 0.183 ± 0.071.
Consider AACGAAGC, for which the “PBM E-score of 8-mer” value was -0.154 ± 0.017.
Regarding CTCAATTA, the “PBM E-score of 8-mer” value is -0.0829 ± 0.032.
The result for ACTAGCAT reads 0.152 ± 0.039.
As to ACATATTC, the “PBM E-score of 8-mer” value was 0.24 ± 0.028.
For the sequence CAGACGGA, the “PBM E-score of 8-mer” value is -0.0715 ± 0.02.
For the sequence AAACCTGT, the “PBM E-score of 8-mer” value amounted to 0.0415 ± 0.013.
With AAGGCATG, the “PBM E-score of 8-mer” value was -0.218 ± 0.093.
With AGGCGTAA, the “PBM E-score of 8-mer” value was determined as 0.215 ± 0.017.
Turning to CGCATACC, the “PBM E-score of 8-mer” value is -0.202 ± 0.0048.
Regarding AAAGTTTC, the “PBM E-score of 8-mer” value was -0.0531 ± 0.055.
Regarding GAGTCGCA, the “PBM E-score of 8-mer” value was 0.237 ± 0.0028.
The result for CAGGTGAG reads 0.422 ± 0.007.
The result for GGCAATGA reads -0.0785 ± 0.12; that for CTGACTTC, -0.0913 ± 0.025.
GGCCCCAC: the “PBM E-score of 8-mer” value turned out to be 0.0114 ± 0.074.
Turning to CACGCTGG, the “PBM E-score of 8-mer” value stood at 0.0207 ± 0.026.
Turning to CAAGTACA, the “PBM E-score of 8-mer” value amounted to 0.0375 ± 0.041.
The result for CATCAGGG reads -0.024 ± 0.045; that for AGCAACCG, -0.0515 ± 0.037; that for AATCGGCC, -0.189 ± 0.027.
